Source: the supplement of paper PMC11417369
± gives the standard deviation of the averaged measurements. This is one part of the list.

What follows are sequences tested on PfAP2-EXP AP2 domain (GST-tagged) (assay: gcPBM binding intensity (ln(normalized median fluorescence intensity)); higher = stronger DNA binding).
How it was run: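 Binding intensity is defined as the maximum Masliner-normalised natural-log median intensity across replicate spots for either probe orientation. It was measured on an Agilent 4 × 180k array of primer-extended double-stranded 36-bp intergenic genomic probes and negative controls, to which GST-tagged P. falciparum DNA-binding domains made in E. coli were applied for 1 h in 1× PBS with 1% milk, 0.2 mg/ml BSA, 0.5% salmon testes DNA and 0.03% Triton X-100. Detection was by Alexa488 anti-GST antibody and scanning at 488 nm.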

| Sequence | gcPBM binding intensity (ln) |
| --- | --- |
| CATATTTTGAACTTCACACATATATATATATATATA [CACACA_site4228] | 10.2 ± 0.3 |
| GGTAGATTATTATTAACGAAAAATGTTTTTAACATA [GTGCAC_negctrl_site216] | 8.12 ± 0.41 |
| AATAATTGTTATAGTTGTACAATACATATATTACAA [XGTACX_site30] | 8.48 ± 0.34 |
| AATAATTGTAGACATGCACACACAAATATTATATAT [CACACA_site8181] | 8.89 ± 0.38 |
| CCTTTCTATTGAAAATGTACATATATATTATTATAT [XGTACX_site5527] | 8.46 ± 0.33 |
| TGTATATATAAAAATATACACACTGTATTATTGTAA [CACACA_site3757] | 8.1 ± 0.36 |
| AATATATATACTTTTTTTTTTTTTTTTTTTTTTTTT [CACACA_negctrl_site520] | 9.165 ± 0.049 |
| TTTAGCACAAACAAAAAAAAAATAGAAAAAAATATA [CACACA_negctrl_site1772] | 8.49 ± 0.49 |
| ACAAATTGTTAAAGGTGTACAATACATATATAAGAA [XGTACX_site4906] | 9.09 ± 0.37 |
| TATGTTTACATATACGTGCACATGAATGTATACATT [GTGCAC_site9894] | 8.785 ± 0.035 |
| AAAAAATAAATAAATAGTACTTTAAAAGAAAAAAAA [XGTACX_site5051] | 8.49 ± 0.47 |
| TATATACAGAATATATGTACATATTCATTTTATATT [XGTACX_site5139] | 8.47 ± 0.23 |
| AAATAAAAAATGGAAATCTTAACAAGAATCATTAAC [CACACA_negctrl_site1626] | 8.42 ± 0.37 |
| TTGTTTAACTTGTTAAATATAATGTATCTGTGGATA [GTGCAC_negctrl_site108] | 8.12 ± 0.4 |
| CAATGTTACTATAATACACACAATATGTATTTGTCT [CACACA_site6668] | 8.5 ± 0.34 |
| AAAGAAAACCAAGTGGTGCATTTTCGTTACTTCATC | 8.63 ± 0.099 |
| AATTATTTACCCTATACACACAAAACAGACTAAAAA [CACACA_site6688] | 8.77 ± 0.4 |
| ATATTAATTCGTTTTGTACACACATAATGAATAATT [CACACA_site8701] | 8.43 ± 0.24 |
| ATAAAAATCATGTTGGTGCGAAATTTTATTATCAGA [GTGCAC_site9735] | 8.65 ± 0.24 |
| AAGGTATGATTAATCACACACATAAATATATATACA [CACACA_site2658] | 8.71 ± 0.42 |
| TTATGTATAAACACACGTACACACACTAAGTATATC [XGTACX_site3254] | 8.58 ± 0.38 |
| ACACATACACATTAGGTGCATATATTTCAATATTAC [GTGCAC_site9423] | 8.605 ± 0.064 |

| Sequence | gcPBM binding intensity (ln) |
| --- | --- |
| TTTAAAAAGATATATACACACATATAAATAAATATA [CACACA_site6436] | 8.43 ± 0.31 |
| ATTATATTTTTAAGTACACACATATATATATATATA [CACACA_site5925] | 10.2 ± 0.3 |
| CCACGTATAATATGTACACACACATATATACAAAAA [CACACA_site8208] | 8.66 ± 0.34 |
| AGCCTCGGGGTCATATATATATATATATATATATAT [CACACA_negctrl_site512] | 10.2 ± 0.53 |
| TATTATTGCATATTTACACACGTACTAATTTAAACA [CACACA_site970] | 8.79 ± 0.29 |
| ATAAAAGGAAGAAAATGTACATATAATTATATGCAT [XGTACX_site8421] | 8.99 ± 0.29 |
| TTGTATATTTTATGTACACACAATAAGTTAATATAA [CACACA_site4655] | 8.53 ± 0.26 |
| TTTTTCTATAAAAAAAAAAAAAAAAAATATATATAT [TGCATGCA_negctrl_site535] | 9.47 ± 0.14 |
| AAAATAATGTATATATGTACATATAAATATATATAT [XGTACX_site8081] | 9.32 |
| TTTTACAAATATAATGGGTGAGCTATCAAAATAAAT [GTGCAC_negctrl_site91] | 8.73 ± 0.32 |
| TGTATACTATTAAATTGTACACATAAGAAATATTAT [XGTACX_site5839] | 8.61 ± 0.34 |
| ATGTTTTTAAAAAATTGTACATAATATTTTTTATAA [XGTACX_site7692] | 8.39 ± 0.35 |
| TATATATATATATATATAATACGAATTTGTAGTACA [TGCATGCA_negctrl_site224] | 10.2 ± 0.16 |
| TTATTTTAATAACCTACACACATTTTGTATATTTTA [CACACA_site4000] | 8.4 ± 0.42 |
| TTATAAATATTCTTGGGTACTTAAGATGATATGTAA [XGTACX_site5496] | 8.34 ± 0.39 |
| AAATGATGGAAAAAATAAATTTTTGTACAAAAATTA [CACACA_negctrl_site814] | 8.62 ± 0.4 |
| ATATATATATTATTTCGTACATAATTATTTGCCTTA [XGTACX_site350] | 9.54 ± 0.15 |
| TAATAAAATATGTACGTGCACATAATTATACTAAAA | 8.745 ± 0.078 |
| TGATACTTTTTTTGTAGTACTCCTAAAATTATAAAA [XGTACX_site4340] | 8.59 ± 0.38 |
| TTTTTTTTATTTTAATGTACATTTTTTATTTGTTAT [XGTACX_site7189] | 8.69 ± 0.59 |
| AAAAAAAAAAAAGAAACACACATATTTATATTTATA [CACACA_site6213] | 8.25 ± 0.37 |
| AAAAAAAAAAAAAATTGTACAAAAAAAATAAATAAA [XGTACX_site6816] | 8.44 ± 0.63 |
